According to PubChem BioAssay AID720707 (National Center for Advancing Translational Sciences (NCATS), 2013):
Among all 360,000 compounds or so, about 270 (0.075%) were called active. Inconclusive results, whose numbers are uncertain, are shown with a selection of clear calls. Calls come from the whole dose curve; as a rule, active = well fitted activation curve with a large enough effect; inconclusive = small, poorly fitted or top-dose-only effect; inactive = no such curve, though single readings can be large or run the other way. Potencies beside an inconclusive call are fits to weak or partial responses and may not hold up.

Target: Rap guanine nucleotide exchange factor 3 (Homo sapiens) (UniProt O95398)
Assay: qHTS for Agonist of cAMP-regulated guanine nucleotide exchange factor 3 (EPAC1): primary screen; note: nearly all actives have a fitted effect of over 60% in size
Details: biochemical assay; activation: at 154 µM (top of the series), 100% = response to 6.5 mM cAMP
Procedure, shortened: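 Nucleotide exchange assay: 100 nM EPAC1 with 250 nM Rap1B loaded with BODIPY-GDP and 50 uM GDP, room temperature. Fluorescence (480/540 nm) read every 5 min for 30 min; signal change normalized to 6.5 mM cAMP as full agonist.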
Potency is the fitted concentration of half-maximal effect; tags give direction and shape of the fitted curve.

Chain of UniProt O95398 (O95398 whole entry, looked up): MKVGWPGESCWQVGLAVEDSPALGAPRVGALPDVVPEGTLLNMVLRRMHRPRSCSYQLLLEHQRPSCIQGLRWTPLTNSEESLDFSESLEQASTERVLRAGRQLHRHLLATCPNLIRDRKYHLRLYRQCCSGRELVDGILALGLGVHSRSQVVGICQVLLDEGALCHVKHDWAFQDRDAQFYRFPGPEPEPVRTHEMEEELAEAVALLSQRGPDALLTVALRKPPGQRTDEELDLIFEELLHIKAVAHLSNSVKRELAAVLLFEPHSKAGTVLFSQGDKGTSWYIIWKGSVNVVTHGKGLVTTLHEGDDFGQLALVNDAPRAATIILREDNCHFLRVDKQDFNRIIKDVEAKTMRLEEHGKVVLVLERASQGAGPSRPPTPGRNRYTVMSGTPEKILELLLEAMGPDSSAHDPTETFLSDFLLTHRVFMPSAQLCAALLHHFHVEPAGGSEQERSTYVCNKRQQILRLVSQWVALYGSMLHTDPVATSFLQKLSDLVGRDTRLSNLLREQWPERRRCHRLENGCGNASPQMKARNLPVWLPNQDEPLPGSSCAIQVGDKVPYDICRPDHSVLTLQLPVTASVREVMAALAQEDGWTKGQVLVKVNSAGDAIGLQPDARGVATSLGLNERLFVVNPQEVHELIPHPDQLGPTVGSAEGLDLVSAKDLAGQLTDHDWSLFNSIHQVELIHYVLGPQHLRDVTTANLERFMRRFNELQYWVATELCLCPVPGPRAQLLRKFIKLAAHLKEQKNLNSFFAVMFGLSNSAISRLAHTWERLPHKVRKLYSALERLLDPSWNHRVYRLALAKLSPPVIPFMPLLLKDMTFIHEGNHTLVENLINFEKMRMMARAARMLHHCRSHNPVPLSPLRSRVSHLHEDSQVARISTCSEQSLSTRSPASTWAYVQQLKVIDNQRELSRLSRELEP

Potency, active:
CC(=O)[C@@]1(O)Cc2c(O)c3c(c(O)c2[C@H](O[C@H]2C[C@H](N)[C@H](O)[C@H](C)O2)C1)C(=O)c1ccccc1C3=O 28.2 µM

Potency, inconclusive:
CN(C)CCCN(C(=O)c1ccc(S(=O)(=O)N2CCCCCC2)cc1)c1nc2c(F)cc(F)cc2s1 79.4 µM [activator, partial curve]
O=C(COC(=O)CNC(=O)c1ccc(Cl)cc1Cl)NCc1ccco1 28.2 µM [activator, single point]
COc1cc(CN2CCN(Cc3ccco3)CC2)cc(OC)c1 112 µM [activator, single point]
CCc1ccc(OCc2nc(-c3ccccn3)no2)c(Br)c1 63.1 µM [activator, partial curve]
O=C(CCl)N1c2ccccc2Oc2ccc3ccccc3c21 126 µM [activator, single point]
CN(CC(=O)Nc1ccc(Cl)c(C(F)(F)F)c1)C(=O)Cc1c[nH]c2ccccc12 44.7 µM [activator, full curve]
COCCN(CCOC)Cc1c(O)ccc2c1O/C(=C\c1ccc(C)o1)C2=O 89.1 µM [activator, partial curve]
COc1cc(N)c(Cl)cc1C(=O)OCC(=O)c1ccc2c(c1)NC(=O)CO2 126 µM [activator, single point]
Cc1ccc(NC(=O)c2ccc(S(=O)(=O)N3CCCCCC3)cc2)nc1 50.1 µM [activator, single point]
Cc1ccccc1NS(=O)(=O)c1ccc2c3c(cccc13)C(=O)N2C 50.1 µM [activator, single point]
Cc1ccc(S(=O)(=O)N2CCOCC2)cc1NC(=O)COC(=O)CCOc1ccc(C(C)(C)C)cc1 126 µM [activator, single point]
COc1ccc(C(=O)Nc2nc(-c3ccc(OC)cc3)c(-c3ccc([N+](=O)[O-])cc3)s2)cc1 28.2 µM [activator, full curve]
CN1C2CCC1/C(=C/c1cccn1C)C(=O)/C2=C\c1cccn1C 44.7 µM [activator, partial curve]
O=C(OCc1nc2ccccc2s1)c1ccc(Br)s1 100 µM [activator, partial curve]
O=[N+]([O-])c1ccc(O)c(/C=N/NC2=NS(=O)(=O)c3ccccc32)c1 100 µM [activator, single point]
CCN1C(=O)/C(=C2/Sc3ccccc3N2CC)S/C1=N\c1ncn[nH]1 112 µM [activator, single point]
CCc1noc(C)c1C(=O)Nc1cc(Cl)ccc1N1CCCC1 5.01 µM [activator, full curve]
O=Nc1c(O)n(Cc2ccc(Cl)c(Cl)c2)c2ccccc12 17.8 µM [activator, full curve, poor fit]
Nc1ncnc2c1nc(Sc1ccc(Cl)cc1)n2[C@@H]1O[C@@H]2COP(=O)(O)O[C@H]2[C@H]1O 100 µM [activator, partial curve, poor fit]
CN1OC[C@@H]2CN(Cc3ccc4c(c3)OCO4)[C@H](c3ccc(N4CCCCC4)cc3)C[C@@H]21 50.1 µM [activator, single point]
O=C(Nc1cccc(Cl)c1)C1CCCN(C2=NS(=O)(=O)c3ccccc32)C1 (centres undefined) 50.1 µM [activator, single point]
CCOC(=O)c1ccc(NC(=O)CSc2nc(=O)n3cccc(C)c3n2)cc1 100 µM [activator, partial curve]
N#CC(C(=O)OC1CCCCC1)c1nc2ccccc2nc1N1CCOCC1 (centres undefined) 28.2 µM [activator, full curve]
O=C1CCC/C(=N/NC(=O)c2sc3ccccc3c2Cl)C1 100 µM [activator, partial curve]
COC(=O)c1cc2cc(NS(=O)(=O)c3ccc(C)cc3)ccc2s1 89.1 µM [activator, partial curve]
Cc1cnc(C(=O)OCC(=O)c2ccc[nH]2)cn1 3.55 µM [activator, full curve, poor fit]
CCc1nc2ccccc2c(C(=O)NCc2ccccc2)c1C 112 µM [activator, single point]
O=C1/C(=C/C=C/c2ccccc2)Oc2c1ccc(O)c2CN1CCN(CCO)CC1 112 µM [activator, partial curve]
CN(Cc1ccc(Cl)cc1Cl)C(=O)CN1C(=O)NC2(CCCC2)C1=O 126 µM [activator, single point]

activation, inactive:
CCCCCCN1C2=NCCCN2c2ccccc21 0.335%
COc1ccc(C2CC(c3cccs3)=NN2C(=O)CCCC(=O)O)cc1OC (centres undefined) 3.76%
CN(Cc1cccs1)C(=O)C1CC(=O)N(Cc2ccccc2)C1 (centres undefined) 0.161%
O=C(Nc1nnc([C@@H]2C[C@H](O)[C@@H](CO)O2)s1)c1ccccc1Cl -8.64%
Cc1cc(C)nc(CCNC(=O)c2cc(COc3ccccc3)on2)n1 -11.7%
CCc1cc2c(CN(C)Cc3ccccc3F)cc(=O)oc2cc1O 18.3%
CCOc1ccc(Cl)cc1-c1cc(C(=O)NCc2ccccc2OC)[nH]n1 0.821%
CC(CCc1ccccc1)NCC(O)COc1ccccc1 (centres undefined) 5.02%
Cc1c(Cc2ccccc2)c(=O)oc2cc(OCc3ccc(C(=O)O)cc3)ccc12 -3.37%
C=C(CN(C)C)C(=O)c1ccc(OC2OC(COC(C)=O)C(OC(C)=O)C(OC(C)=O)C2OC(C)=O)cc1 (centres undefined) -8.48%
Oc1ccccc1-c1cc(-c2ccco2)[nH]n1 0.0135%
Cc1ccc(N=Nc2ccc(C)cc2NC(=O)Nc2ccccc2F)cc1 -3.6%
O=C1NN(c2ccc(F)c(Cl)c2)C(=O)/C1=C\c1cccc(OC(=O)c2cccs2)c1 -13.4%
C/C(=N\Nc1ccc(S(=O)(=O)N2CCCCC2)cn1)c1cccc(Br)c1 2.72%
